Assay results reported in patent US20250270339A1 (Alector, published 2025).

T1: Cyno TfR ECD Avi-His (cynomolgus macaque, UniProt Q5RDH6 89-760 (Pongo abelii entry), biotin on the Avi tag (BirA) where captured on streptavidin)
T1 construct: also called Cyno TfR Avi-His; cyno TfR Avi-His
T1 chain: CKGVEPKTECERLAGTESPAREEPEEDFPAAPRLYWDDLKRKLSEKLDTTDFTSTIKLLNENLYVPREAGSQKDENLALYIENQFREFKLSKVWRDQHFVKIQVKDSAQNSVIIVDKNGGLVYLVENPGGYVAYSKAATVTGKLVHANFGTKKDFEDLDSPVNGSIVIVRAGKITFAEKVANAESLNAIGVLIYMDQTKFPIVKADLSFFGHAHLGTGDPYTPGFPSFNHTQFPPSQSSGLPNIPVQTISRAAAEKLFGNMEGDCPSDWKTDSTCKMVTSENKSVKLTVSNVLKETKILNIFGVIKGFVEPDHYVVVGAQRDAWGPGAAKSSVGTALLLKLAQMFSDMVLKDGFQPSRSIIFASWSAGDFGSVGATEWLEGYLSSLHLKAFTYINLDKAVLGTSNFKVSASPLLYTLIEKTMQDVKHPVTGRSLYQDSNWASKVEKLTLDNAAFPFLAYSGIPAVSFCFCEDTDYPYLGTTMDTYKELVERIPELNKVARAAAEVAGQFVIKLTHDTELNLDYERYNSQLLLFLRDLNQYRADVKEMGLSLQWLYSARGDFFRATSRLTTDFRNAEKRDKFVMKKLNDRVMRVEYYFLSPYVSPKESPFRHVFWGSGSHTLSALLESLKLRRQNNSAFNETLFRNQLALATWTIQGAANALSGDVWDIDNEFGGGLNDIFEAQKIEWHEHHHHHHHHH

T2: huTfR Apical Domain-Avi-His (human, biotin on the Avi tag (BirA) where captured on streptavidin)
T2 construct: also called huTfR apical Avi-His; hTfR Apical
T2 chain: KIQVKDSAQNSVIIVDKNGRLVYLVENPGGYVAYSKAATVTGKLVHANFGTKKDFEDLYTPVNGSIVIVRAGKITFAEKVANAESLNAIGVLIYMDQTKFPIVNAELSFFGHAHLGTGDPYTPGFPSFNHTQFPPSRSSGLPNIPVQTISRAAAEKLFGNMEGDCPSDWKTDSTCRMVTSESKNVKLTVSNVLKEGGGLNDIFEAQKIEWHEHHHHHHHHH


Columns and labels:
[1] = biological target: T3, Full length human TfR on CHO cells (human, UniProt P02786); assay: FACS MFI
T3 construct: also called CHO + huTfR; CHO + hTfR
T3 sequence (P02786 whole entry): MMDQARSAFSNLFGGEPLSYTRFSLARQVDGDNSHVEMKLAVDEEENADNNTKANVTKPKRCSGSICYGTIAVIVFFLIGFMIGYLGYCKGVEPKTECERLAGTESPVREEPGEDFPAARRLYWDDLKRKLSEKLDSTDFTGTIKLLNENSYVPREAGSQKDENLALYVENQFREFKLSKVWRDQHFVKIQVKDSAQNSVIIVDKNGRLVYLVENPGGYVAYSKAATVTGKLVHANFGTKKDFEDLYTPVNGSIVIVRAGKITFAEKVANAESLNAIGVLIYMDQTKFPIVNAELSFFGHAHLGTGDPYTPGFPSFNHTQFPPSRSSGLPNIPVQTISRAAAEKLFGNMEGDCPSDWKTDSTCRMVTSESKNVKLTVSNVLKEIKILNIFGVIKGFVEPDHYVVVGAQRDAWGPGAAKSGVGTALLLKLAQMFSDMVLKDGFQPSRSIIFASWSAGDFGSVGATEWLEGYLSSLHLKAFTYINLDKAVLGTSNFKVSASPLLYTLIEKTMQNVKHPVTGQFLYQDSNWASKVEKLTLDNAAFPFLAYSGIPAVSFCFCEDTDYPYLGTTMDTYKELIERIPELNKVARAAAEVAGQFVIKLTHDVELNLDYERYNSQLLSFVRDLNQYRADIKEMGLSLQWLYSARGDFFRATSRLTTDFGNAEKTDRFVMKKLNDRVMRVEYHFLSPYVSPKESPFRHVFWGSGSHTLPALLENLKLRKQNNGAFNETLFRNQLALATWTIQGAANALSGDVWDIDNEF

[2] = biological target: T4, Mouse TfR (muTfR) ECD Avi-His (mouse, UniProt Q62351, biotin on the Avi tag (BirA) where captured on streptavidin); assay: ELISA OD450
T4 construct: also called MuTfR Avi-His

[3] = biological target: T1, Cyno TfR ECD Avi-His; assay: ELISA OD450
[4] = biological target: T2, huTfR Apical Domain-Avi-His; assay: ELISA OD450

Binder	fold over CHO parental [1] [fold]	fold over isotype control [2] [fold]	fold over isotype control [3] [fold]	fold over isotype control [4] [fold]
TfR25 2+1 anti-TfR bispecific antibody (bispecific antibody, human IgG1, kappa, 2+1) heavy 1: EVRLLESGGGLVQPGGSLRLSCAASGFTFSNYAMGWVRQAPGKGLEWVSAISGSGGSTYYADSVKGRFTTSRDDSKNALYLQMNSLRAEDTAVYYCARGGPGWYAADVWGQGTTVTVSSASTKGPSVFPLAPSSKSTSGGTAALGCLVKDYFPEPVTVSWNSGALTSGVHTFPAVLQSSGLYSLSSVVTVPSSSLGTQTYICNVNHKPSNTKVDKKV[here human IgG1 Fc with changes without letters]GGGGSGGGGSGGGGSQVQLQQSGPELVKPGTSVKMSCKASGYTFTNYYIHWMKQRPGQGLEWIGWIYPGDGNTHYNERFKGKTTLTADKSSSTVYMFLTSLTSEDSAIYFCAKDKDMPGMDYWGQGTSVTVSSGGSEGKSSGSGSESKSTGGSDMVMTQSPSSLTVTAGEKVTMSCKSSQSLFNSENQKNYLTWYQQKPGQPPKLLISWASTRESGVPDRFTGSGSGTDFTLTINSVQAEDLAVYYCQNDYSYPLTFGAGTKLELK heavy 2: EVRLLESGGGLVQPGGSLRLSCAASGFTFSNYAMGWVRQAPGKGLEWVSAISGSGGSTYYADSVKGRFTTSRDDSKNALYLQMNSLRAEDTAVYYCARGGPGWYAADVWGQGTTVTVSS[here human IgG1 constant region with changes without letters] light: DIQMTQSPSSLSASVGDRVTITCRASQSISSYLNWYQQKPGKAPKLLIYAASSLQSGVPSRFSGSGSGTDFTLTISSLQPEDFATYYCQQADLPAFAFGGGTKVEIKRTVAAPSVFIFPPSDEQLKSGTASVVCLLNNFYPREAKVQWKVDNALQSGNSQESVTEQDSKDSTYSLSSTLTLSKADYEKHKVYACEVTHQGLSSPVTKSFNRGEC	23	1	1	12
TfR30 2+1 anti-TfR bispecific antibody (bispecific antibody, human IgG1, kappa, 2+1) heavy 1: EVRLLESGGGLVQPGGSLRLSCAASGFTFSNYAMGWVRQAPGKGLEWVSAISGSGGSTYYADSVKGRFTTSRDDSKNALYLQMNSLRAEDTAVYYCARGGPGWYAADVWGQGTTVTVSSASTKGPSVFPLAPSSKSTSGGTAALGCLVKDYFPEPVTVSWNSGALTSGVHTFPAVLQSSGLYSLSSVVTVPSSSLGTQTYICNVNHKPSNTKVDKKV[here human IgG1 Fc with changes without letters]GGGGSGGGGSGGGGSQVQLQQSGPQLVRPGASVKISCKASGYSFTNYWLHWVKQRPGQGLEWIGMIDPSDSETRLNQKFKDKATLTVDKSSSTAYMQLSSPTSEDSAVYYCARWGGGYYGFAYWGQGTLVTVSAGGSEGKSSGSGSESKSTGGSDIVMTQSQKFMSTSVGDRVSITCKASQNVRTAVAWYQQKPGQSPKALIYLASNRHTGVPDRFTGSGSGTDFTLTISNVQSEDLADYFCLQHWNYPWTFGGGTKLEIK heavy 2: EVRLLESGGGLVQPGGSLRLSCAASGFTFSNYAMGWVRQAPGKGLEWVSAISGSGGSTYYADSVKGRFTTSRDDSKNALYLQMNSLRAEDTAVYYCARGGPGWYAADVWGQGTTVTVSS[here human IgG1 constant region with changes without letters] light: DIQMTQSPSSLSASVGDRVTITCRASQSISSYLNWYQQKPGKAPKLLIYAASSLQSGVPSRFSGSGSGTDFTLTISSLQPEDFATYYCQQADLPAFAFGGGTKVEIKRTVAAPSVFIFPPSDEQLKSGTASVVCLLNNFYPREAKVQWKVDNALQSGNSQESVTEQDSKDSTYSLSSTLTLSKADYEKHKVYACEVTHQGLSSPVTKSFNRGEC	261	1	5	40

More lines, now with the values ahead:

fold over CHO parental [1] [fold]	fold over isotype control [2] [fold]	fold over isotype control [3] [fold]	fold over isotype control [4] [fold]	Binder
242	1	1	30	TfR32 2+1 anti-TfR bispecific antibody (bispecific antibody, human IgG1, kappa, 2+1) heavy 1: EVRLLESGGGLVQPGGSLRLSCAASGFTFSNYAMGWVRQAPGKGLEWVSAISGSGGSTYYADSVKGRFTTSRDDSKNALYLQMNSLRAEDTAVYYCARGGPGWYAADVWGQGTTVTVSSASTKGPSVFPLAPSSKSTSGGTAALGCLVKDYFPEPVTVSWNSGALTSGVHTFPAVLQSSGLYSLSSVVTVPSSSLGTQTYICNVNHKPSNTKVDKKV[here human IgG1 Fc with changes without letters]GGGGSGGGGSGGGGSQVQLQQSGADLVRPGTSVKVSCKASGNAFSNYLIEWVKQRPGQGLEWIGVINPGSGETNYNEKFKGKATLTADKSSSTAYMQLSSLTSDDSAVYFCAIRYDGPLLDHWGQGTSVTVSSGGSEGKSSGSGSESKSTGGSSIVMTQTPKFLLVSAGDRVTITCKASQSVSNDVAWFQQKPGQSPKLLIYYASNRYTGVPDRFTGSGYGTDFTFTIRNVQAEDLAVYFCQQDYISPTFGAGTKLELK heavy 2: EVRLLESGGGLVQPGGSLRLSCAASGFTFSNYAMGWVRQAPGKGLEWVSAISGSGGSTYYADSVKGRFTTSRDDSKNALYLQMNSLRAEDTAVYYCARGGPGWYAADVWGQGTTVTVSS[here human IgG1 constant region with changes without letters] light: DIQMTQSPSSLSASVGDRVTITCRASQSISSYLNWYQQKPGKAPKLLIYAASSLQSGVPSRFSGSGSGTDFTLTISSLQPEDFATYYCQQADLPAFAFGGGTKVEIKRTVAAPSVFIFPPSDEQLKSGTASVVCLLNNFYPREAKVQWKVDNALQSGNSQESVTEQDSKDSTYSLSSTLTLSKADYEKHKVYACEVTHQGLSSPVTKSFNRGEC
1	1	1	1	TfR29 2+1 anti-TfR bispecific antibody (bispecific antibody, human IgG1, kappa, 2+1) heavy 1: EVRLLESGGGLVQPGGSLRLSCAASGFTFSNYAMGWVRQAPGKGLEWVSAISGSGGSTYYADSVKGRFTTSRDDSKNALYLQMNSLRAEDTAVYYCARGGPGWYAADVWGQGTTVTVSSASTKGPSVFPLAPSSKSTSGGTAALGCLVKDYFPEPVTVSWNSGALTSGVHTFPAVLQSSGLYSLSSVVTVPSSSLGTQTYICNVNHKPSNTKVDKKV[here human IgG1 Fc with changes without letters]GGGGSGGGGSGGGGSQVQLQQSGPQLVRPGASVKISCKASGYSFTNYWLHWVKQRPGQGLEWIGMIDPSDSETRLNQKFKDKATLTVDKSSSTAYMQLSSPTSEDSAVYYCARWGGGYYGFAYWGQGTLVTVSAGGSEGKSSGSGSESKSTGGSQIVLTQSPAIMSASPGEKVTMTCSASSSISYMHWYQQKPGTSPKRWIYDTSKLASGVPARFSGSGSGTSYSLTISSMEAEDAATYYCHQRSSYTFGGGTKLEIK heavy 2: EVRLLESGGGLVQPGGSLRLSCAASGFTFSNYAMGWVRQAPGKGLEWVSAISGSGGSTYYADSVKGRFTTSRDDSKNALYLQMNSLRAEDTAVYYCARGGPGWYAADVWGQGTTVTVSS[here human IgG1 constant region with changes without letters] light: DIQMTQSPSSLSASVGDRVTITCRASQSISSYLNWYQQKPGKAPKLLIYAASSLQSGVPSRFSGSGSGTDFTLTISSLQPEDFATYYCQQADLPAFAFGGGTKVEIKRTVAAPSVFIFPPSDEQLKSGTASVVCLLNNFYPREAKVQWKVDNALQSGNSQESVTEQDSKDSTYSLSSTLTLSKADYEKHKVYACEVTHQGLSSPVTKSFNRGEC
